Measurements as given in ChEMBL document CHEMBL1157539, “Thousands of chemical starting points for antimalarial lead identification” (Nature, 2010).
Whole data set: some 13,000 compounds, median “IFI” near 4, cut for the highest 2% near 17. The list shows a part of the results.

Test: GSK_TCMDC: Inhibition Frequency Index (IFI). The number of non-kinase HTS assays where a compound showed > 50 % inhibition, expressed as a percentage of the number of such assays in which the compound was tested (-0 is zero)
Assay type: functional

Row | Compound | IFI [%]
1 | Fc1ccc2c(NN=CC=Cc3ccccc3)ccnc2c1 | 0.77
2 | O=C(NC1CCCC1)c1ccc(N2CCC(NCc3cc4cc(Cl)ccc4[nH]3)CC2)cc1 | 9.76
3 | CN1CCC(Oc2ccc(CN3CC[C@H](NC(=O)c4ccc(Cl)c(Cl)c4)C3)c3ccccc23)C1 (some centres not stated) | 11.9
4 | CC(C)(C)c1ccc(Cc2cccc3nc(N)nc(N)c23)cc1 | 7.5
5 | Cn1ccnc1CCC(=O)Nc1ccc(Cl)cc1C(=O)Nc1ccc(Cl)cc1 | 0
6 | NC(=O)c1cc(-c2ccccc2)cc2c(C3CCC(NCc4ccccc4)C3)c[nH]c12 (configuration not stated) | 10.6
7 | Cc1ccc(C2CC(c3cccs3)=NN2C(=O)c2ccc(Br)o2)cc1 (configuration not stated) | 4.17
8 | COc1ccc(-c2ccc(NC(=O)c3ccc(Cl)cc3)cc2)cc1CN1CCN(C)CC1 | 4.95
9 | COc1ccc(C(=O)COc2cccc(/C=C/C(=O)O)c2)cc1OC | 0.7
10 | CCNC(C)(C)CN(Cc1ccc(-c2ccc(C(F)(F)F)cc2)cc1)C(=O)Cn1c(SCc2ccc(F)cc2)nc(=O)c2c1CCC2 | 14.8
11 | COc1ccc([N+](=O)[O-])cc1N(Cc1ccccc1-c1ccccc1)S(=O)(=O)c1ccc(C(F)(F)F)cc1[N+](=O)[O-] | 2.16
12 | c1ccc(CNCc2cccc(-c3cccc(-c4nc5ccccc5[nH]4)c3)c2)cc1 | 5.83
13 | COc1ccc(-c2cccc(NC(=O)c3ccc(C#N)cc3)c2)cc1CNC(C)C | 3.96
14 | O=C(Nc1ccc(OC2CCN(Cc3ccc(F)cc3)CC2)c(Cl)c1)c1ccc(F)cc1 | 11.3
15 | N=c1n(CCN2CCCC2)c2ccccc2n1CC(O)c1ccc(Cl)c(Cl)c1 (configuration not stated) | 5.8
16 | Cc1cccc(C(=O)Nc2ccnc(N3CCC(N(C)Cc4ccccc4)CC3)c2)c1 | 0
17 | CC(Cc1ccc(C(=O)OC(c2ccccc2)c2ccccc2)cc1)NCC(O)c1ccccc1 (configuration not stated) | 15.5
18 | COc1ccccc1C(=O)C1CCCN(C(=O)c2ccccc2C(F)(F)F)C1 (configuration not stated) | 0
19 | COc1cc2nc(C)nc(Nc3ccc4c(ccn4Cc4ccccc4)c3)c2cc1OC | 2.9

Row | Compound | IFI [%]
20 | CCC(C)CN1CCN(c2ccc(NC(=O)c3cccs3)cc2)C(C)C1 (configuration not stated) | 2.78
21 | CC(=O)c1cc(N2CCOCC2)ccc1N | 4.05
22 | CCOC(=O)Cn1ccc2c(NCc3ccccc3)nc(C)nc21 | 2.92
23 | COc1cc(NC(=O)Nc2ccc(Br)cc2C(=O)Nc2ccc(Br)cc2)cc(OC)c1OC | 1.55
24 | CCOc1ccc2c(=NN=Cc3cccc(OC)c3)cc(C)[nH]c2c1 | 9.56
25 | COc1ccc2nc(C)cc(Nc3ccc(N4CCN(C)CC4)cc3)c2c1 | 0.75
26 | OC[C@H](Nc1nc(C(Oc2ccccc2)c2ccccc2)nc2[nH]ncc12)c1ccccc1 (some centres not stated) | 5.41
27 | Fc1ccc2[nH]c(-c3cccc(-c4ccc(CN5CCN(c6cnccn6)CC5)cc4)c3)nc2c1 | 7.77
28 | CCOc1ccc(C(=O)Nc2cc(Br)c3c(c2)CNCC3)cc1Cl | 6.38
29 | CN1CCC(NCc2ccc(-c3cccc(-c4nc5ccccc5[nH]4)c3)cc2)CC1 | 4.76
30 | C/C=C/COc1ccc(-c2c(C)[nH]c(C)c(Cl)c2=O)cc1 | 0.91
31 | O=C(N[C@@H](Cc1ccccc1)C(=O)O)c1cc(-c2ccc(F)cc2)no1.O=C(N[C@@H](Cc1ccccc1)C(=O)O)c1conc1-c1ccc(F)cc1 | -0
32 | COc1cc(C(=O)NCCCN2CCN(c3cccc(Cl)c3)CC2)ccc1-c1nc2cc(Cl)c(F)cc2[nH]1 | 1.46
33 | COc1ccc(OCCCCON2C(=N)N=C(N)NC2(C)C)cc1 | 4.76
34 | O=C(/C=C/c1ccc(Cl)cc1)NCCCCCN1CCN(C(=O)Nc2ccc(Cl)c(C(F)(F)F)c2)CC1 | 9.8
35 | CCCCCCC(C)c1cc(OCCN(CC)CC)c2c(c1)OC(C)(C)C=C2c1ccncc1 (configuration not stated) | 4.96
36 | COc1ccc(Nc2nccc(NCC(O)c3cccc(C(F)(F)F)c3)n2)cc1 (configuration not stated) | 15.3
37 | COc1ccc2nccc([C@@H](O)CN3CCC(NCc4nc5c([N+](=O)[O-])cccc5[nH]4)CC3)c2c1 | 4.51
38 | CC(CN1CCN(C)CC1)C(=O)Nc1cccc(-c2cccc(-c3nc4cc(F)ccc4[nH]3)c2)c1 (configuration not stated) | 1.85

Row | Compound | IFI [%]
39 | O=C1CC(C(=O)Nc2cccc(-c3cccc(-c4nc5ccccc5[nH]4)c3)c2)c2ccccc2N1 (configuration not stated) | 4.55
40 | O=C(/C=C/c1ccc(Cl)c(Cl)c1)NCCCCCN1CCC(NC(=O)c2ccc([N+](=O)[O-])cc2)CC1 | 7.81
41 | O=C(NCC1CCC(CNCCCc2ccccc2)CC1)Nc1ccc(Cl)c(Cl)c1 (configuration not stated) | 5
42 | CNc1ccc(CNCc2cccc(-c3ccc(-c4nc5cc(C(F)(F)F)ccc5[nH]4)cc3)c2)cc1 | 18.8
43 | COc1ccc(-c2ccc(NC(=O)c3cccc(Cl)c3)cc2)cc1CN1CCN(C)CC1 | 7.84
44 | CCCn1c(=N)c(C(=O)NCCc2ccccc2)cc2c(=O)n3cccc(C)c3nc21 | 3.39
45 | CC(=O)Nc1ccc(CN2CCC(CNC(=O)c3cc(-c4cccc(Cl)c4)cs3)C2)cc1 (configuration not stated) | 8
46 | O=C(NCCN1CCC(NC(=O)c2ccc(-c3ccccn3)s2)CC1)c1ccc(Cl)c(Cl)c1 | 2.74
47 | COc1cccc(C2CCN(CCN3CCC(NC(=O)c4ccc(-c5ccc(C(F)(F)F)cc5)cc4)CC3)CC2)c1 | 7.34
48 | COC(=O)C(=C(C)C)N1C(=O)[C@@H](NC(=O)OCc2ccccc2)[C@H]1SS[C@@H]1[C@H](NC(=O)OCc2ccccc2)C(=O)N1C(C(=O)OC)=C(C)C | 4.41
49 | COc1ccc(S(=O)(=O)NCCCC2CCN(CCCCCNC(=O)C=Cc3ccc(Cl)c(Cl)c3)CC2)cc1 | 8.7
50 | O=C(Nc1cccc(C(F)(F)F)c1)Nc1cc(F)c(F)cc1Cl | 11.6
51 | O=c1ccc(-c2nc3cc(Cl)c(Cl)cc3n2Cc2ccc(Cl)cc2Cl)c[nH]1 | 3.33
52 | CCCCCCn1c(Sc2ccc(C#N)c([N+](=O)[O-])c2)nnc1-c1ccc(OC)cc1 | 7.09
53 | CC1Cc2ccccc2N1CC(=O)Nc1cc(C(F)(F)F)ccc1-n1cncn1 (configuration not stated) | 5.66
54 | O=C(Nc1cccc(-c2ccc(-c3nc4ccccc4[nH]3)cc2)c1)Nc1ccc2c(c1)OCO2 | 4.04
55 | COc1ccc(NC(=O)Nc2cc(C)nc3cccnc23)cc1Cn1ccnc1 | 1.37
56 | Cc1cc(F)ccc1Nc1nc(N(C)c2ccccc2)c2cc(OCCCN(C)C)ccc2n1 | 10.8
57 | CC(C)CCNC(=O)[C@@H]1[C@H]2C(=O)N(C3CCCCC3)C(=O)[C@H]2[C@H]2C=C[C@@H]3C(c4ccc(C(C)(C)C)cc4)=NO[C@@H]3N21 | 1.47
